Results taken from PubChem BioAssay AID463173 (ICCB-Longwood Screening Facility, Harvard Medical School, 2010).
Hit rate of the full screen: of about 52,000 compounds, about 1,700 (3.3%) were called active. Rule as the data show it: active = survival mostly below about 52% (no sharp cut-off); inactive = mostly above about 56%. Some of the results follow.

System: Wild type
Assay: growth inhibition of S. aureus wild type versus tarO mutant, primary screen, teichoic acid synthesis inhibitors, RN4220, OD600 (AID 463173)
Settings: S. aureus RN4220 wild type/DeltatarO growth, OD600, 18 h, hits give low values, screened at 18.75 µg/mL (by protocol)

SMILES	survival
Cc1cc(C)cc(NC(=O)C2CCN(S(=O)(=O)c3cn(C)cn3)CC2)c1	inactive: 73%
O=c1oc2ccc3ccccc3c2cc1-c1nnc(Nc2ccccc2F)s1	inactive: 76%
CCOC(=O)C1CCCN(CC(=O)Nc2cc(C)c3c(=O)oc4ccccc4c3n2)C1 (stereo unspecified)	inactive: 81%
CCc1cccc(C)c1NC(=O)Cn1nnc(-c2nc(-c3ccccc3F)no2)c1N	inactive: 99%
Cc1cc2c(cc1NS(=O)(=O)c1cccc(C#N)c1)n(C)c(=O)c(=O)n2C	inactive: 81%
CCCOc1ccc(C2C(=O)N(C3CCC(C)CC3)CC(=O)N2Cc2cccc(OC)c2)cc1OC (stereo unspecified)	inactive: 81%
Cn1cc(S(=O)(=O)N2CCCCCC2)cc1C(=O)Nc1ccc(Cl)c(C(F)(F)F)c1	inactive: 60%
COc1ccc(NS(=O)(=O)c2cc3c(cc2C)N(C(C)=O)CCO3)cc1	inactive: 93%
CC1=Nc2cc(C(=O)N3CCC(C)CC3)ccc2Sc2ccc(Cl)cc21	inactive: 81%
COc1ccc(NC(=O)CS(=O)CC(=O)Nc2ccc(NC(C)=O)cc2)cc1 (stereo unspecified)	inactive: 105%
Cc1ccc2c(c1)nnn2C1CCN(C(=O)N(c2ccccc2)c2ccccc2)CC1	inactive: 112%
O=C(CSc1nnnn1C1CCCC1)NCc1cccs1	inactive: 107%
CCc1ccc(NC(=O)C2CCCN2S(=O)(=O)c2ccc3c(c2)CCCC(=O)N3)cc1 (stereo unspecified)	inactive: 73%
COc1ccc(CCNC(=O)c2ccc(Cn3c(=O)c4ccccc4n(Cc4cccc(F)c4)c3=O)cc2)cc1OC	inactive: 74%
Cc1oc2c(c1C(=O)Nc1ccc(OC(F)(F)F)cc1)C1=NCCN1C=N2	inactive: 89%
CC(CC(=O)NCc1cccnc1)c1ccccc1 (stereo unspecified)	inactive: 115%
CCc1ccc(NC(=O)CCc2c(C)nn(-c3ccc(N4CCCC4)nn3)c2C)cc1	inactive: 72%
COc1nc(N)c(C#N)c(-c2ccc(C)cc2)c1C#N	inactive: 121%
Oc1ccc2ccccc2c1/C=N/c1nccs1	inactive: 106%
O=C(O)C1CC=CCC1Cc1ccccc1 (stereo unspecified)	inactive: 95%
COc1ccc(NS(=O)(=O)c2cnc(N)nc2)cc1Cl	inactive: 63%
O=C(COc1ccc2oc3c(c2c1)CCCC3)Nc1ccccn1	inactive: 110%
CC(=O)c1ccc(Oc2ncnc3c2oc2ccccc23)cc1	inactive: 128%

SMILES	survival
Cc1cc(=O)[nH]c2nnc(SCC(N)=O)n12	inactive: 66%
COc1ccc(C(=O)c2c(N)c(C(=O)Nc3ccccc3Cl)c3ccccn23)cc1	inactive: 87%
O=C(COc1ccc2oc3c(c2c1)CCCC3)Nc1cccc(Br)c1	inactive: 31%
COc1cccc(CN2CCC(C(=O)N3CCCC(C)C3)CC2)c1 (stereo unspecified)	inactive: 110%
O=C(NCCCc1ccccc1)c1cccs1	inactive: 121%
CCCCc1ccc(C(=O)c2c(N)c(C(=O)Nc3cccc(OC)c3)c3ccccn23)cc1	inactive: 88%
Cc1nnc(N2C(=O)c3oc4ccccc4c(=O)c3C2c2cccc(OCCC(C)C)c2)s1 (stereo unspecified)	inactive: 66%
COc1cc(C(=O)NCCc2sc(-c3ccc(C)cc3)nc2C)cc(OC)c1OC	inactive: 87%
CC1CCN(C(=O)Cn2cc(SCC(=O)NCc3ccc(F)cc3)c3ccccc32)CC1	inactive: 89%
COc1ccc(C(=O)/C=C/c2cn(CC(O)CN3CCCCCC3)c3ccccc23)cc1OC (stereo unspecified)	inactive: 96%
COCCCNC(=O)c1c(NC(=O)Cc2coc3cc(C)ccc23)sc2c1CCCC2	inactive: 80%
Cn1c(=O)c2cc(C(=O)NCCCN3CCN(c4ccc(F)cc4)CC3)sc2c2ccccc21	inactive: 81%
CC(=N/Nc1nnc(C)n1N)/C(C)=N/Nc1nnc(C)n1N	inactive: 110%
O=[N+]([O-])c1cc(-c2nc(-c3ccccc3)no2)ccc1NCc1ccco1	inactive: 82%
COc1ccc(NC(=O)CSc2nc3ccccc3nc2N2CCOCC2)c(OC)c1	inactive: 65%
Cc1ccc(-c2noc(-c3ccc(N4CCOCC4)c([N+](=O)[O-])c3)n2)cc1	inactive: 77%
Cc1ccc(C(=O)c2oc3ccccc3c2NC(=O)COc2ccccc2C)cc1	inactive: 84%
Cc1ccc(C)c2c(N)c3c(nc12)CCCCC3	inactive: 96%
Cc1ccccc1CN1C(=O)c2ccccc2S(=O)c2ccc(C(=O)N3CCOCC3)cc21 (stereo unspecified)	inactive: 81%
COc1ccc(Cn2c(SCC(=O)N3CCN(c4ccc(F)cc4)CC3)nc3ccccc32)cc1	inactive: 45%
O=C(CN1CCN(Cc2ccc(F)cc2)C1=O)NCc1ccc(F)cc1	inactive: 98%
Cc1ccc2scc(N3CCCCC3C)c(=O)c2c1 (stereo unspecified)	inactive: 74%
Cc1ccccc1CNC(=O)CN1C(=O)CCCc2ccccc21	inactive: 83%

SMILES	survival
Cc1ccc(C2CC(=O)N(Cc3ccc(F)cc3)c3c2c(C)nn3-c2nc(C)cc(C)n2)cc1 (stereo unspecified)	inactive: 84%
COc1ccc(CCNC(=O)CCCn2c(=O)c3ccccc3n(CC(=O)Nc3ccccc3C)c2=O)cc1OC	inactive: 87%
Cc1ccc(NC2(c3ccccc3)C(=O)c3ccccc3C2=O)cc1F	inactive: 52%
C=CCNC(=O)CN1CCC(n2c(C)nc3cc(C(F)(F)F)ccc32)CC1	inactive: 109%
CC1CCN(S(=O)(=O)c2ccc3c(c2)N(CC(=O)NCCCOC(C)C)C(=O)CO3)CC1	inactive: 123%
O=C(COc1ccccc1)N(Cc1cccnc1)c1nc2c(F)cc(F)cc2s1	inactive: 72%
Cc1ccsc1CN(C(=O)COc1ccccc1Cl)C1CCS(=O)(=O)C1 (stereo unspecified)	inactive: 82%
COCCNC(=O)Cn1c(-c2cccs2)cc2cc(Cl)ccc21	inactive: 115%
CCc1ccccc1NC(=O)CN(c1ccccc1OC)S(=O)(=O)c1ccc(C)cc1	inactive: 62%
CCC(C)NC(=O)CCCn1c(=O)c2cccn2c2ccccc21 (stereo unspecified)	inactive: 107%
CCOC(=O)CSc1nc2sc3c(c2c(=O)n1Cc1ccccc1)CC(C(C)C)OC3 (stereo unspecified)	inactive: 70%
CCC(C(=O)NC1CCCCC1)n1c(SCc2ccccc2F)nc2ccncc21 (stereo unspecified)	inactive: 73%
COCCNC(=O)CN1C(=O)COc2ccc(S(=O)(=O)N3CCCCCC3)cc21	inactive: 78%
COc1ccc(C2C(=O)N(C3CCCCCC3)CC(=O)N2CCc2ccc(Cl)cc2)cc1OC (stereo unspecified)	inactive: 72%
CCc1ccc(NC(=O)CSc2ccc(-c3sc(-c4ccccc4)nc3C)nn2)cc1	inactive: 64%
Cc1ccccc1C(=O)Nc1cccc(NC(=O)c2ccc(C(C)(C)C)cc2)c1	inactive: 140%
Cc1nn(C(C)C(=O)NCCc2ccccc2)c(=O)c2c1sc1ccccc12 (stereo unspecified)	inactive: 98%
CCN(Cc1ccccc1)c1nc2c(S(=O)(=O)c3ccccc3)nnn2c2ccc(Cl)cc12	inactive: 88%
CCc1ccc(C(c2ccccc2)c2c(C)[nH]c3ccccc23)s1 (stereo unspecified)	inactive: 36%
Cc1cc(C)c(NC(=O)CSc2nc3ccccc3c3nc(-c4ccccc4)nn23)c(C)c1	inactive: 84%
Cc1cccc(CNC(=O)c2ccc3c(c2)N(C)CCS3)c1	inactive: 86%
CCOc1ccc(C2C(=O)N(C3CCCCC3)CC(=O)N2Cc2ccc(F)cc2)cc1OC (stereo unspecified)	inactive: 55%
CCCC(C)NS(=O)(=O)c1ccccc1 (stereo unspecified)	inactive: 119%

SMILES	survival
COc1ccc(NC(=O)Cn2c(=O)n(CCCC(=O)NCc3ccccc3Cl)c(=O)c3ccccc32)c(OC)c1	inactive: 140%
Cc1ccccc1CNC(=O)Cn1nc(C)c2nn(-c3ccc(Cl)cc3)c(C)c2c1=O	inactive: 32%
CCOC(=O)c1sc2ccccc2c1S(=O)(=O)Nc1cc(OC)ccc1OC	inactive: 83%
COc1ccc(N2CCN(c3ncccc3-c3nc(-c4ccccc4C)no3)CC2)cc1	inactive: 87%
COc1ccc(CNCc2c(C(=O)O)c(C)n(Cc3ccccc3C)c2C)cc1OC	inactive: 90%
Cc1ccc(C)c(N2CCN(S(=O)(=O)c3ccc4[nH]c5c(c4c3)CCCC5)CC2)c1	active: -4%
N#Cc1nc(-c2ccc(COc3ccc(Cl)cc3)o2)oc1N1CCCCC1	inactive: 79%
CCOC(=O)c1scc(-c2ccccc2)c1S(=O)(=O)Nc1ccccc1OC	inactive: 69%
COc1ccccc1N1CCN(c2nc3c(S(=O)(=O)c4ccccc4)nnn3c3ccc(Cl)cc23)CC1	inactive: 86%
COc1ccc(CNS(=O)(=O)c2ccc(C(=O)N(C)C)s2)cc1	inactive: 87%
COc1ccc(Cn2c(SCc3ccc(C(=O)NC4CCCCC4)cc3)nc3ccncc32)cc1	inactive: 81%
CCc1cccc(C)c1Nc1c(-c2ccc(F)cc2)nc2sccn12	inactive: 52%
Fc1ccc(N2CCN(Cc3nnc(-c4ccccc4Cl)o3)CC2)cc1	inactive: 82%
O=C1c2[nH]nc(-c3ccccc3O)c2C(c2cccc(OCc3ccccc3)c2)N1CCCO (stereo unspecified)	inactive: 70%
CCOc1ccc(NC(=O)CSc2ncc(S(=O)(=O)c3ccc(F)c(C)c3)c(=O)[nH]2)cc1	inactive: 82%
Cc1ccc2c(=O)c(C(=O)c3ccccc3)cn(CC(=O)NCc3ccccc3)c2n1	inactive: 68%
CCS(=O)(=O)Nc1ccc2[nH]c(=O)[nH]c2c1	inactive: 96%
O=C(CSc1nnc(COc2cccc3cccnc23)o1)N1c2ccccc2CCc2ccccc21	inactive: 109%
O=C(O)CC(NS(=O)(=O)c1cccc2nsnc12)C(=O)O (stereo unspecified)	inactive: 117%
Cc1ccc(CNc2nc(-c3ccco3)nn2C(=O)c2ccccc2[N+](=O)[O-])cc1	inactive: 107%
C/C(O)=C\c1sc2ccccc2[n+]1C	inactive: 105%
COc1ccc(N2CC(C(=O)NCCS(=O)(=O)N3CCN(c4ccccc4)CC3)CC2=O)cc1 (stereo unspecified)	inactive: 70%
